Like-named read-outs stand apart in the source and are kept apart here. Results are given in words; binding and its absence hold for the method and conditions named. In cells and extracts the contact can be indirect. Some binding calls cover weakened binding; strength is not graded here. For some of these results: Tags and fused reporters may be left off the sequences shown.

The chains behind the UniProt entries cited, without tags or fusion partners. Residues count along the entry.
UniProt O14980: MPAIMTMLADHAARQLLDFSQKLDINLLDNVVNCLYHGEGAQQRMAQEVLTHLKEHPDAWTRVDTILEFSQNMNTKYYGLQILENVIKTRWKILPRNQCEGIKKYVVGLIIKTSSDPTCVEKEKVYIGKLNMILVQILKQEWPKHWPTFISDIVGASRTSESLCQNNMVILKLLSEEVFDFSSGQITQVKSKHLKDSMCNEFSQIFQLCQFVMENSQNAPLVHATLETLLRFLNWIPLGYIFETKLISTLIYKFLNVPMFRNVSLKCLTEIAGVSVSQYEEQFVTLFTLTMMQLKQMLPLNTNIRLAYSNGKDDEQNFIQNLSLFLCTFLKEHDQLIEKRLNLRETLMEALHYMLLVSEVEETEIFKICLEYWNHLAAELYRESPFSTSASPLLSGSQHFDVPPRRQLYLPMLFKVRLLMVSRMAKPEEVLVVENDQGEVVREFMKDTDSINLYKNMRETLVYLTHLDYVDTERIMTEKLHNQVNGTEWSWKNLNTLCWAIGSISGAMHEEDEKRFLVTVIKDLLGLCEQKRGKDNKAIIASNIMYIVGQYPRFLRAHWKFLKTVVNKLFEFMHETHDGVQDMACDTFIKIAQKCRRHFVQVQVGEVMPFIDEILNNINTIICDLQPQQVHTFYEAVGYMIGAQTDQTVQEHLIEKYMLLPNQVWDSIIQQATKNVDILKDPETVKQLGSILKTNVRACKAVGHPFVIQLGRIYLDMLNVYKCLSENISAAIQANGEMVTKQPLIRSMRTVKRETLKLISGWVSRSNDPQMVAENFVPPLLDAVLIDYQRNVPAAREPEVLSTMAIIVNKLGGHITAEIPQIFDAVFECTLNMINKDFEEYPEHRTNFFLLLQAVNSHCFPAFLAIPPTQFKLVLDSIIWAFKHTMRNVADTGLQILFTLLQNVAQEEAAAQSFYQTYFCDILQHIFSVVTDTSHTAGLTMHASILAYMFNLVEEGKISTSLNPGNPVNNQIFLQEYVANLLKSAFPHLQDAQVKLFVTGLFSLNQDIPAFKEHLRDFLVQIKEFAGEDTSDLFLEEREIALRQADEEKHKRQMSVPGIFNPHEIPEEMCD
UniProt P20700: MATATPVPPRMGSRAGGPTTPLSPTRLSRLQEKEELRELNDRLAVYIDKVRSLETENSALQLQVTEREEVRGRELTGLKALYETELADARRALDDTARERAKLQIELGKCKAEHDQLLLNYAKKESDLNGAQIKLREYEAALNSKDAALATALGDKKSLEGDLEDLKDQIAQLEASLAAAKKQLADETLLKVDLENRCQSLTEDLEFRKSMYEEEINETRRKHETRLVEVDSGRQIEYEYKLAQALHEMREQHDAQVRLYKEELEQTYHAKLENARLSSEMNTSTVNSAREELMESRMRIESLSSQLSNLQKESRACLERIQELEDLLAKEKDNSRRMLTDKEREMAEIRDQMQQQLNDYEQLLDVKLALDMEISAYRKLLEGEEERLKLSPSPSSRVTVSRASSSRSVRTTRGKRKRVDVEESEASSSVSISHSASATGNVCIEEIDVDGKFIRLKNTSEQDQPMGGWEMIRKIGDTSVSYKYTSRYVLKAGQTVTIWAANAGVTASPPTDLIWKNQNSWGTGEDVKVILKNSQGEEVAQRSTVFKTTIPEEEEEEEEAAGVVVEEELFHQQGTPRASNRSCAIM
UniProt P02545, residues 1-646: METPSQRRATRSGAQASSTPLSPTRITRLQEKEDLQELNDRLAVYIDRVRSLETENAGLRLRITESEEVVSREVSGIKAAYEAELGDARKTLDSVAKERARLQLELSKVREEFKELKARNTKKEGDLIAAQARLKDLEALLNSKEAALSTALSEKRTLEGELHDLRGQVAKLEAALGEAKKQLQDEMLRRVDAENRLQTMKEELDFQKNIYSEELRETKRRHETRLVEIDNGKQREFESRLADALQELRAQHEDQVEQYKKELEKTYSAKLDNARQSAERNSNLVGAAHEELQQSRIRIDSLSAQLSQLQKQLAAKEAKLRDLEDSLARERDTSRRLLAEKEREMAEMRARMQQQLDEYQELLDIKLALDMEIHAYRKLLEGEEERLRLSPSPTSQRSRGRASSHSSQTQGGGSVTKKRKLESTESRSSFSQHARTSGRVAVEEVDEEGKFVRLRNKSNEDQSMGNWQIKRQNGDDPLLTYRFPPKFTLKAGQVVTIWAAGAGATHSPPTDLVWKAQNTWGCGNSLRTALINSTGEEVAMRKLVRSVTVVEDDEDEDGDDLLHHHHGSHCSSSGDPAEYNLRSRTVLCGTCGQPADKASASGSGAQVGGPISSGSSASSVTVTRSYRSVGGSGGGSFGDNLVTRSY

The target of assay [1] is T1, mammalian STE20-like protein kinase 2 (MST2) (human (endogenous in HeLa)) (UniProt Q13188).
T1 sequence: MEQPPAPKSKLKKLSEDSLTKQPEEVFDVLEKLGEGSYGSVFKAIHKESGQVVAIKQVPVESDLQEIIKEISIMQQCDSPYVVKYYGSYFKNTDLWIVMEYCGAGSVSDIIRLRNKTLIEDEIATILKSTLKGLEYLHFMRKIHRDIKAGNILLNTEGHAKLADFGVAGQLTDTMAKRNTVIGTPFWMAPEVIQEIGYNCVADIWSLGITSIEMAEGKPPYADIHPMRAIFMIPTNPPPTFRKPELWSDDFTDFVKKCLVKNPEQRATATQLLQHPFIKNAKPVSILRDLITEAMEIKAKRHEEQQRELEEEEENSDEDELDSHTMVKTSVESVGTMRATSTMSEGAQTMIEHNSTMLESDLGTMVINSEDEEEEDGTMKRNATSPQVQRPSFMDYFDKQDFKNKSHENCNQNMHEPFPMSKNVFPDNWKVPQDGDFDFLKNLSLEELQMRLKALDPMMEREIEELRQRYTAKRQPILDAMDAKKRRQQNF
Put plainly: co-IP; endogenous proteins from HeLa cell lysates (50 mM Tris-HCl pH 7.5, 0.15 M NaCl, 1 mM EDTA, 1% NP-40), 2 ug antibody and protein G Dynabeads, 2 h at 4 C, immunoblot; cells in some panels treated with siCTRL, siRASSF1A, siMST2 or siXPO6. On the technique in general: A western blot detects proteins with antibodies after separation by electrophoresis.

The target in assay [2] is T2, exportin-6 (XPO6) (human (endogenous in HeLa)) (UniProt Q96QU8).
T2 sequence: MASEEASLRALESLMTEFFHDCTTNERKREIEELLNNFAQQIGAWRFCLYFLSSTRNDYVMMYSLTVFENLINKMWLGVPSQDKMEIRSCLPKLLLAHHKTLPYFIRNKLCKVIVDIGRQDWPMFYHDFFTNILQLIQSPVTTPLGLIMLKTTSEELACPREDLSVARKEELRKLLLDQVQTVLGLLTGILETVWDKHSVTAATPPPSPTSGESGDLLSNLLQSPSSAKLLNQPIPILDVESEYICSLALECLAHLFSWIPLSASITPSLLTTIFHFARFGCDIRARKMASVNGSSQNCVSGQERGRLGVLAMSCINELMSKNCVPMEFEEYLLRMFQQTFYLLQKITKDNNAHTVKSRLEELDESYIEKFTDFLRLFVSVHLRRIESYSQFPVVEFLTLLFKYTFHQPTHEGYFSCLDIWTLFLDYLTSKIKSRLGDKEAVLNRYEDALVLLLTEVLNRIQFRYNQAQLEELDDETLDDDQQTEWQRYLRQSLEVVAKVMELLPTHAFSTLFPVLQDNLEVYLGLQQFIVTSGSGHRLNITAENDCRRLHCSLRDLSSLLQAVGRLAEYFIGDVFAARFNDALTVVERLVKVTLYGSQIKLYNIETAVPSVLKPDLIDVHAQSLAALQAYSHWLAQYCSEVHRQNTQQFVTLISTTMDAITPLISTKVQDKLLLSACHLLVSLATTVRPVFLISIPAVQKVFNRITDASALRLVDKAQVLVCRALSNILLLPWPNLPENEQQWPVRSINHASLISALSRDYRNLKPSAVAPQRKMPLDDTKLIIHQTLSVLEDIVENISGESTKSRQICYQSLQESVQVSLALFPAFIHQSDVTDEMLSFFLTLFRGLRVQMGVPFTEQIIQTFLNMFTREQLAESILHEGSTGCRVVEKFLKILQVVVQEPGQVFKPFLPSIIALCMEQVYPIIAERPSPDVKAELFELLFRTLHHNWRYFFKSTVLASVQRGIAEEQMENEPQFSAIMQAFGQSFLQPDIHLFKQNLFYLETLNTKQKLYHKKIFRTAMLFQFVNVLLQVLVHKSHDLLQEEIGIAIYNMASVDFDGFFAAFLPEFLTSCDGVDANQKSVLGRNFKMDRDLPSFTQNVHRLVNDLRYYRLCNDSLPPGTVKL
Described as above.

Assay [3] deals with exportin-1 (CRM1/XPO1) (human (endogenous in HeLa)) (UniProt O14980). The description is as above.
Assay [4] has as its target T1, mammalian STE20-like protein kinase 2 (MST2) (human (endogenous in HeLa)). Described as above. This is another data set of the same source.
Assay [5] addresses T3, full-length MYC-RASSF1A (aa 1-340) (UniProt Q9NS23).
T3 sequence: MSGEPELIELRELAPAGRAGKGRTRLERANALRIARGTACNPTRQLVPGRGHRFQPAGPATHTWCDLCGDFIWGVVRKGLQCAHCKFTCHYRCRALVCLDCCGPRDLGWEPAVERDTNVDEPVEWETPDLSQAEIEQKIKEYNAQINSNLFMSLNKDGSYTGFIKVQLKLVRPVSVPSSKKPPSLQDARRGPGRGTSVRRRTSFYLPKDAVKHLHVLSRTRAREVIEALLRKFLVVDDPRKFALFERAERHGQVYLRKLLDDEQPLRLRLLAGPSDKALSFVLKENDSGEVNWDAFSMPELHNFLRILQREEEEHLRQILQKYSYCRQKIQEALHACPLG
Description: co-IP; MYC immunoprecipitation from HeLa cells expressing MYC-RASSF1A or its truncations, immunoblot for endogenous XPO6.

For the next assay, the target named is T4, MYC-RASSF1A (aa 1-288) (UniProt Q9NS23).
T4 sequence: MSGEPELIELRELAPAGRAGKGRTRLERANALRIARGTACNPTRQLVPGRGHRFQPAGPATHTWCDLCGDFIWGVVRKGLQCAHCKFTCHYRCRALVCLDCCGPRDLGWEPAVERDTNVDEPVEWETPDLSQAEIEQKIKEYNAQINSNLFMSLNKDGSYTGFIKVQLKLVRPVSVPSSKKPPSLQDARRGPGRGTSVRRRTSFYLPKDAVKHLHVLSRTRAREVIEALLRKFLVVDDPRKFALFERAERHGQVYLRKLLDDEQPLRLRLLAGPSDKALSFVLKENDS
The description is as above.

The next assay has as its target T5, MYC-RASSF1A (aa 120-288) (UniProt Q9NS23).
T5 sequence: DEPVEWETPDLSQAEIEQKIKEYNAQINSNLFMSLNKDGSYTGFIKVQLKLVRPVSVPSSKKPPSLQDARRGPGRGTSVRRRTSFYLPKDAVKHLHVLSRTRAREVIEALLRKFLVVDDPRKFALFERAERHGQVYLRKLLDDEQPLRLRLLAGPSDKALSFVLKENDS
The assay is described as above.

Another assay concerns the target T6, MYC-RASSF1A (aa 120-340) (UniProt Q9NS23).
T6 sequence: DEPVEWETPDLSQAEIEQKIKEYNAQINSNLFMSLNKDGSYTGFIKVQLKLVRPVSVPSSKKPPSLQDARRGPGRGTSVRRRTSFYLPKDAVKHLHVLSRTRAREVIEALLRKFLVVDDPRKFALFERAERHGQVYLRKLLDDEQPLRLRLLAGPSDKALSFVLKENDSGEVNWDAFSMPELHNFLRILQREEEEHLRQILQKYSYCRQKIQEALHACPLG
Described as above.

The target in assay [6] is T7, RASSF1A (Ras association domain family 1 isoform A) (human (endogenous in HeLa)) (UniProt Q9NS23).
T7 sequence: T3 sequence
Put plainly: co-IP; endogenous proteins from HeLa cell lysates (50 mM Tris-HCl pH 7.5, 0.15 M NaCl, 1 mM EDTA, 1% NP-40), 2 ug antibody and protein G Dynabeads, 2 h at 4 C, immunoblot; cells in some panels treated with siCTRL, siRASSF1A, siMST2 or siXPO6.

With Lamin B1 (from UniProt P20700 1-586), the binding entry in assay [1] is listed as “binds”.

For the molecule Lamin A/C (from UniProt P02545 1-646), the binding entry in assay [1] is “binds”.

B1: RASSF1A (Ras association domain family 1 isoform A) (protein, UniProt Q9NS23-2 1-340)
chain: T3 sequence
As to B1, the results for the binding entry in assay [2], in assay [3] and in assay [4] were “binds”, “no binding” and “binds”, respectively.

B2: exportin-6 (XPO6) (protein, UniProt Q96QU8 1-1125)
chain: T2 sequence
As for B2, the binding result in assay [5] is listed as “binds”; in the assay with MYC-RASSF1A (aa 1-288), “no binding”; in the assay with MYC-RASSF1A (aa 120-288) it was “no binding”; with MYC-RASSF1A (aa 120-340), “binds”; in assay [6], “binds”.
